Assay results taken from the supplement of paper PMC11417369.
± gives the standard deviation of the averaged measurements. Some of the results follow.

Each sequence was assayed on PfAP2-LT AP2 domain (GST-tagged) (assay: gcPBM binding intensity (ln(normalized median fluorescence intensity)); higher = stronger DNA binding).
Summary of the method: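 Binding of GST-tagged P. falciparum DNA-binding domains, expressed in E. coli and used at about 25 μg on average, was carried out for 1 h in 1× PBS containing 1% milk, 0.2 mg/ml BSA, 0.5% salmon testes DNA and 0.03% Triton X-100. The target was an Agilent 4 × 180k array of primer-extended double-stranded 36-bp intergenic genomic probes plus negative controls, read with Alexa488 anti-GST antibody at 488 nm. Binding intensity is the highest Masliner-normalised natural-log median intensity across replicate spots of either probe orientation.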

Row | Sequence | gcPBM binding intensity (ln)
1 | AATGGGTTACACATATGTACATAAAATATAAAAAAT [XGTACX_site3440] | 9 ± 0.58
2 | TCTCATTTTCCCTAAAAAAAAAAATAAATAAAAATA [TGCATGCA_negctrl_site580] | 7.98 ± 0.38
3 | TTTTTCCATATTGTAGCATGCAGTATATATATCATG [TGCATGCA_site530] | 8.9 ± 0.35
4 | ATTTATATATAAATGTGTACATATATATATATAAAC [XGTACX_site7592] | 9.04 ± 0.38
5 | TACCATGTTCAAATTACACACATATAATGCAATATA [CACACA_site7034] | 8.99 ± 0.37
6 | CTGAAATTAACAAAAGTGCATAAAAATAAAAAATAT [GTGCAC_site9652] | 8.9 ± 0.47
7 | ATTGTAAGTAAACACACACACATATATCTGTATTTA [CACACA_site4542] | 9.66 ± 0.37
8 | TCACATTTTGGACACGTGCACATATATTTGATACAT | 9.05 ± 0.45
9 | AAAATTAATTATTACAAAAATGAAAAGACATATTTT [GTGCAC_negctrl_site735] | 8.43 ± 0.44
10 | TTTTTTTACAACATTACACACAAATATTCTGGGTTA [CACACA_site3755] | 9.01 ± 0.39
11 | AATATTATATTAAAATGTACAAAAATGAATTACTTT [XGTACX_site1473] | 8.63 ± 0.51
12 | CAATGCAAGGCTTAAAAAAATGGGCATATTATATAT [GTGCAC_negctrl_site304] | 8.67 ± 0.58
13 | AAAAAGGAAATTTACACACACATATAATATACATTA [CACACA_site3296] | 9.31 ± 0.33
14 | ATTTACCAGACCATATGTACATACATAAAACACACA [XGTACX_site3788] | 9.2 ± 0.43
15 | GGAATTGAAAAATCAGCACACACACTAATACATACA [CACACA_site9059] | 9.69 ± 0.3
16 | AAATGGCAATAATGGACACACAAATGTTGTTATATA [CACACA_site2819] | 9 ± 0.51
17 | AATAATTGTTAAAGGTGTACAATACCTACATAAGAA [XGTACX_site4215] | 8.88 ± 0.5
18 | AATATTTCTCATTTTGTGCACTGAAAAATGTAATAT | 8.7 ± 0.33
19 | TCATATATCCTTATCACACATATAATAAATTCCCTT [CACACA_site4457] | 8.73 ± 0.41
20 | TTCTTTGCTTTTCAAACACACAAAAGTTATTATAGT [CACACA_site6390] | 8.82 ± 0.49
21 | GTTCTACAAGCCACTGCATGCTGATATAGAATAAAT [TGCATGCA_site138] | 8.73 ± 0.43
22 | ATATGATTATTATTATATAAATTATAAAGTCTAATA [GTGCAC_negctrl_site586] | 8.28 ± 0.31
23 | TTTTCATTCAATTATATTTATATATATATATATATA [GTGCAC_negctrl_site538] | 8.86 ± 0.23

Row | Sequence | gcPBM binding intensity (ln)
24 | TACATGTATAAATAAGCACACATGTGGATATGTACA [CACACA_site93] | 9.36 ± 0.35
25 | CAAAATATTTTTATAACACACATATATATAATGTGC [CACACA_site4767] | 8.82 ± 0.39
26 | ACTTATATATTATGTTGTCCGTCCATTCTCTTTATC [XGTACX_site3769] | 9.22 ± 0.5
27 | AAAATTTAAAGCATGACACACAATTATATTATGTGC [CACACA_site3435] | 9.4 ± 0.15
28 | TTGTGAAATAAAATTTGTACACACATATATATATAT [XGTACX_site1078] | 9.45 ± 0.12
29 | TTCTTTTCTTTAGTAGAATGTAAAAAATATAATCTT [XGTACX_negctrl_site290] | 8.26 ± 0.43
30 | TTTTTTTTGGAATTCACACAAATATAACATGGGTAT [CACACA_site5185] | 8.7 ± 0.38
31 | TACACAAGGGGAAAAATATATATATATATATATATA [TGCATGCA_negctrl_site217] | 9.88 ± 0.028
32 | TAAAAGTATATATATACACACATAAATATATATGTA [CACACA_site663] | 9.04 ± 0.4
33 | TAAAAAATTTTATATTCACACACATATATATATATA [CACACA_site8109] | 9.31 ± 0.16
34 | TTTTATAAGGTGAAAAGTACATATAACTTATTTTAC [XGTACX_site5572] | 8.46 ± 0.45
35 | ATCTTTCCTATTTGTAGTACAAAAAAAAAAAAAAAA [XGTACX_site5485] | 8.18 ± 0.49
36 | TATTGTCTATAATAAACACACAATATTAAAAATATA [CACACA_site6624] | 8.62 ± 0.47
37 | TTAAATGATGTAAACACACACATATACATTATTATA [CACACA_site3162] | 9.19 ± 0.35
38 | AAAAAAAAAAAAAAAACACACATACATACATACATA [CACACA_site6125] | 9.26 ± 0.41
39 | AGAAAAGTGATATATACACACTTATATTTATTTATA [CACACA_site7350] | 8.8 ± 0.47
40 | TTTTTTTTTTTTTTTGCACACACCATATTTATAGAA [CACACA_site3310] | 9.22 ± 0.45
41 | TTATTTTATTTTTTTGTGCACATATATATTTATAAA [GTGCAC_site9615] | 8.81 ± 0.43
42 | ACGTGTGATTATAATTGTACTTTAATGTAAGAATGA [XGTACX_site1109] | 9.12 ± 0.4
43 | ATATATATATATATATGTACTTATAATAATATTCAA [XGTACX_site2593] | 9.29 ± 0.12
44 | CAAAAGAAGGTAAACACACACACACGCATACAAAAA [CACACA_site7724] | 9.94 ± 0.43
45 | ATAGAATAAAACTATACACACCTATATTTAAACATA [CACACA_site5106] | 8.94 ± 0.47
46 | CAAAACCTTATATGTACACACATATACATCACCCTT [CACACA_site3170] | 9.36 ± 0.47

Row | Sequence | gcPBM binding intensity (ln)
47 | ATTTCTCTATCGTAATGTACATAAAAAATGAAAAAA [XGTACX_site1201] | 8.51 ± 0.51
48 | TTTTCTAAATAAATAGTGCATTTATTATATATACAT [GTGCAC_site9766] | 8.71 ± 0.42
49 | TGTTTATTTTTAAAAAGTACATATTTAAAAAACTTC [XGTACX_site271] | 8.17 ± 0.42
50 | TTGTATTATATTGTATTATGTTTAAATGAAAAAAAA [CACACA_negctrl_site662] | 8.19 ± 0.4
51 | TATTGTTACTTTATATGTACTAATTAAACATATACA [XGTACX_site6363] | 8.72 ± 0.46
52 | AAATATTAGTAACACAGACACACAAAAAAAAAAAAA [CACACA_site2175] | 8.95 ± 0.58
53 | AAAAAAAAAAAAAAAAGTACACAAATTTTAAAAATT [XGTACX_site3006] | 8.48 ± 0.59
54 | ATAAAATATAAAAATTGTACGATAATAATAGTAGGA [XGTACX_site8951] | 8.74 ± 0.42
55 | AACACTTCTTATTTATGTACTTAATTCCCAACGGAA [XGTACX_site4818] | 8.64 ± 0.5
56 | AATTACTACATAAATACATGCATAATTATATATATA [TGCATGCA_site783] | 8.73 ± 0.36
57 | TATCTCTTCATATTGTGTACATATTTTTATTTATTG [XGTACX_site4038] | 9.12 ± 0.54
58 | AAATGAATAAATAAGACACACACGAAAATAAGTAAA [CACACA_site71] | 9.44 ± 0.41
59 | TTATAAAATTACTTGGTGCATTAGAATATTTCAATA | 8.3 ± 0.41
60 | TGATCAGATAGACACACACACAAAAAAAAAAAAAAA [CACACA_site7805] | 9.43 ± 0.59
61 | AAATATATATATATATATATATATATATATATATAT [CACACA_negctrl_site677] | 9.52 ± 0.54
62 | TTGCATTTTCTAGTAACACACAATTAGCGTTGCTGT [CACACA_site3594] | 9.15 ± 0.51
63 | TAACAAAAAGGGAACACATGCGCTCTTTATTTATTT [TGCATGCA_site620] | 9.03 ± 0.4
64 | TATAGAAGCATTCACACACACACATACATACACATA [CACACA_site1466] | 10 ± 0.3
65 | ATAATATTAATATGTACACACCTTAATCCTTAAAAG [CACACA_site7640] | 8.78 ± 0.37
66 | GTATTTATATGATTAACACACATATGGGTATTAATA [CACACA_site4853] | 8.89 ± 0.26
67 | TATACCTGAATTAAAAGTACATGTATATATTTTCCC [XGTACX_site3594] | 8.73 ± 0.38
68 | ATAATTTTTTAAGTGTGTACTAAAATGTGTATTTTA [XGTACX_site6227] | 8.8 ± 0.48
69 | ATAAATGACAAATTAACACACATATATTATAGATAT [CACACA_site7770] | 9.07 ± 0.42

Row | Sequence | gcPBM binding intensity (ln)
70 | AAAATGTGATATGTAAATATATATGTATGTATATAT [CACACA_negctrl_site1748] | 8.92 ± 0.38
71 | ATCTATATTTAATTTACACACAAAAAAAATTGTTGG [CACACA_site6582] | 8.96 ± 0.38
72 | TAATGCATTTTCGCATGTACATATTTCTCTTTATAT [XGTACX_site8915] | 8.79 ± 0.49
73 | TCTTAATATCGTTTCTCACACATATACAAACATAAA [CACACA_site5700] | 8.54 ± 0.4
74 | TATTATAGAAATTTAATGTTGGACAAAAAAATGAAA [CACACA_negctrl_site1351] | 8.44 ± 0.47
75 | AATATATGAATTATATGTACATATAGATAAGTCACA [XGTACX_site7637] | 8.93 ± 0.42
76 | AGAGAGAAAGCTATAACATGCAACAATTTTTAGAAC [TGCATGCA_site596] | 8.9 ± 0.54
77 | AAATTATTTATTTTATGTACATATTATTAAAGTTAA [XGTACX_site552] | 8.58 ± 0.42
78 | AAAAAAAAGAAAAACACACACATATATATATAGAAT [CACACA_site1006] | 9.64 ± 0.45
79 | TTTCCCTTGTTGTAAACATGCACAATATTTAGGTAT [TGCATGCA_site49] | 8.88 ± 0.38
80 | TATATTTATAGGTATACACACATATGTATGTTATGT [CACACA_site7824] | 9.41 ± 0.45
81 | TTATGTATTTATATAAATATAAATATATATATATAT [CACACA_negctrl_site774] | 8.64 ± 0.34
82 | TCATTTTATTTTTTCACACACACATCTATATTTATA [CACACA_site7547] | 9.38 ± 0.32
83 | ACAAAAATAAACTATAGTACACACTTATTATTATGA [XGTACX_site5680] | 8.82 ± 0.46
84 | TAAGTAACTTTTAAAAGTACCCACACATATATATAT [XGTACX_site1231] | 8.88 ± 0.33
85 | TTTCTTTTTTTTTTTTTTTTTTTTTTTTTTTTTTTT [TGCATGCA_negctrl_site91] | 8.59 ± 0.16
86 | CAATTAGCATTTTATTGTACATTTATAATCTATGAT [XGTACX_site1445] | 8.74 ± 0.41
87 | AAAAAAAAAAATACTCGTACATAAACCTATACATTT [XGTACX_site6494] | 8.83 ± 0.45
88 | CTTAGAATATATGAATGTACTTTTTTTTTTAAATAA [XGTACX_site6048] | 8.18 ± 0.45
89 | ATAATATATTTTTGTAGTACACTTCTGGTAATATCG [XGTACX_site2402] | 8.81 ± 0.46
